Measured values from publication PMC4336329 (PLoS ONE, 2015).
In all, about 310,000 compounds went through this assay and about 2,200 (0.71%) showed an effect of 50% or more. The effect is printed as a negative number. This is one part of the list.

The compounds below were run against human ether-à-go-go-related gene (hERG) potassium channel (human, UniProt Q12809) (assay: primary screen, population patch clamp on CHO cells stably expressing hERG).
human ether-à-go-go-related gene (hERG) potassium channel, sequence (Q12809 whole entry, looked up): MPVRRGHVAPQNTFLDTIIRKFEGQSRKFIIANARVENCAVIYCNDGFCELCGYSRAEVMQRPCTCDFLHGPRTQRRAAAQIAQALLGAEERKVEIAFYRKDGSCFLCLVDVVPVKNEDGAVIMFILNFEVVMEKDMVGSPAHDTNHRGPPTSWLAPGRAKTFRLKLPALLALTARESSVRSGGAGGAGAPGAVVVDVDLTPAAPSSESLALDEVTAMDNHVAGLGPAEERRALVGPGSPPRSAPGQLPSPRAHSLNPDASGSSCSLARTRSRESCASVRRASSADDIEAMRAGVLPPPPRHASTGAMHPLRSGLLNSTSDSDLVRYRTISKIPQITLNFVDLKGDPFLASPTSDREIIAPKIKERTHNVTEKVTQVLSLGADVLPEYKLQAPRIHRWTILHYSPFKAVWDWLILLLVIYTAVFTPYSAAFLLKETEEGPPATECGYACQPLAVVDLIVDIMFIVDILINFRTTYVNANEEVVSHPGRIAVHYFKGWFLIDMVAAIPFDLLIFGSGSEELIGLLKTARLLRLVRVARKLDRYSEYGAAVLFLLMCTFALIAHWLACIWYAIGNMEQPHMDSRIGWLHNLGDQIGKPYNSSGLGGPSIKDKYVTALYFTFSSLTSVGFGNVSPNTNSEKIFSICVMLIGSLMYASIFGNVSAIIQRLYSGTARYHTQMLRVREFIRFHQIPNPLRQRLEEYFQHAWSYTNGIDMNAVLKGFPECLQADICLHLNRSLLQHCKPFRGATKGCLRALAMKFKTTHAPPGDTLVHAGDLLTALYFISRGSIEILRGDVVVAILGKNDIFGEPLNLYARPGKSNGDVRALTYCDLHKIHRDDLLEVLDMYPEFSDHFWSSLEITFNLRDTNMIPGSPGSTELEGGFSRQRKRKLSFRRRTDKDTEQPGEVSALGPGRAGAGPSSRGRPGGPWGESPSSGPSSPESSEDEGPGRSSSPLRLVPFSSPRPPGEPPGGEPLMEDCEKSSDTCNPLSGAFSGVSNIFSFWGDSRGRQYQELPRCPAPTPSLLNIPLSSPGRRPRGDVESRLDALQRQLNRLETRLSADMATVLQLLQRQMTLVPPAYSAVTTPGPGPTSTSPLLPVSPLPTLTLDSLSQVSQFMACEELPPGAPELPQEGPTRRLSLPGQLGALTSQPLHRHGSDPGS

| Structure (SMILES) | hERG current change (%, negative = inhibition) at 1uM |
| --- | --- |
| CC1=C(C(=O)N2CCOCC2)C(c2cccs2)NC(=O)N1 (centres unmarked) | 10.7% |
| CCN(CC)S(=O)(=O)c1cccc(C(=O)OC2CCOC2=O)c1 (centres unmarked) | 8.03% |
| O=C(Nc1ccc(F)cc1F)c1ccc(-n2cccn2)nc1 | 1.37% |
| Cc1ccc(NC(=O)CN2C(=O)N/C(=C/c3ccc(C)o3)C2=O)cc1 | 7.31% |
| COc1cc(-c2nn3c(-c4cccnc4)nnc3s2)cc(OC)c1OC | 3.07% |
| COc1ccc2cc(C(=O)C3CCCN(C(=O)c4cc5nc(C)cc(C)n5n4)C3)ccc2c1 (centres unmarked) | -5.02% |
| Cc1ccc(NC(=O)COc2ncnc3cc([N+](=O)[O-])ccc23)cc1S(=O)(=O)N1CCOCC1 | 3% |
| Cc1ccc(N2C(=O)C3C(C(=O)c4ccccc4)=NN(c4ccccc4)C3C2=O)cc1 (centres unmarked) | 15.6% |
| CCOP(=O)(OCC)/C(C#N)=C/c1ccc([N+](=O)[O-])cc1 | -4.07% |
| CCN(CC)C(=O)CN(c1cc(Cl)ccc1OC)S(C)(=O)=O | 8.33% |
| CCc1nnc(NC(=O)NC(C)(C)C)s1 | 11.4% |
| COc1ccccc1-n1c(SCC(=O)Nc2cccc3ccccc23)nc(O)cc1=O | 1.29% |
| COc1ccc(C=O)cc1Cn1c(C)cc(C)c(C#N)c1=O | 3.93% |
| CC(c1ccccc1)N1C(=O)CC(Sc2ncccc2C(=O)O)C1=O (centres unmarked) | 14.4% |
| CN(CCOc1ccccc1)C(=O)c1cc([N+](=O)[O-])ccc1N1CCOCC1 | -14.1% |
| CCOC(=O)c1c(NC(=O)c2nn(CC)cc2Br)c(C#N)cn1-c1ccccc1 | 8.35% |
| CCCC(O)(c1ccc(OC)cc1)C(CN1CCOCC1)c1ccccc1 (centres unmarked) | 10.9% |
| CNC(=O)CN1C(=O)CSc2nc(C)cc(C)c21 | 2.95% |
| C=CCn1c(-c2ccc(S(=O)(=O)N3CCOCC3)cc2)csc1=Nc1ccccc1 | 6.04% |
| O=C(CSc1n[nH]c(-c2ccccc2)n1)NC(=O)NCc1ccco1 | -4.3% |
| CNC(=S)N(CCc1c(C)[nH]c2ccc(OC)cc12)Cc1ccco1 | 9.8% |
| N#Cc1c(-c2ccccc2)ccn(Cc2cccc(Cl)c2)c1=O | 13.2% |

| Structure (SMILES) | hERG current change (%, negative = inhibition) at 1uM |
| --- | --- |
| CC1CCCCN1Cc1ccc(Cl)nc1 (centres unmarked) | 8.91% |
| Cc1ccc(C=NCc2ccncc2)c(O)c1 | 5.84% |
| CC(C)[C@H](NS(=O)(=O)c1cccc(Cl)c1)C(=O)OCC(=O)NC(=O)CN1CCCC1=O | 9.45% |
| Cc1ccc(-n2nnnc2CNC(=O)C2CC(=O)N(c3ccccc3)C2)cc1C (centres unmarked) | 20.6% |
| CC1(OC(=O)CCc2ccccc2)C(=O)C=C2C=C(c3ccc(C#N)cc3)N(CCc3ccccn3)C=C2C1=O (centres unmarked) | -4.89% |
| CC(=O)c1ccc(NC2OC(CO)C(O)C(O)C2O)cc1 (centres unmarked) | -4.15% |
| Cn1ccs/c1=N\C(=O)Nc1ccccc1 | 9.82% |
| COc1ccc(C(C#N)N2N=C(c3ccccc3)CC2c2ccccc2)cc1OC (centres unmarked) | 10.6% |
| CC(/C=N/NC(=O)c1cc(C(C)C)[nH]n1)=C\c1ccccc1 | 7.12% |
| Cc1onc(-c2ccccc2Cl)c1C(N)=O | 7.55% |
| CN(Cc1ccccc1)C(=O)c1ccco1 | 0.0237% |
| O=C1ON=C(c2ccccc2)/C1=C/c1ccc(-c2ccccc2[N+](=O)[O-])o1 | 15% |
| CCC(C)(C)n1nnnc1C(c1ccc(Cl)cc1)N1CCN(C)CC1.Cl (centres unmarked) | 9.61% |
| Cc1cccc(N(CC(=O)NC2CCCC2)C(=O)CCC(=O)Nc2ccccn2)c1 | 11% |
| Cc1ccc(C2Nc3ccccc3-c3nc4ccccc4n32)o1 (centres unmarked) | -2.88% |
| Cc1ncc2c(n1)-c1cc(F)ccc1SC2 | 6.89% |
| COc1ccc(C)cc1NC(=O)CSc1nc2ccccc2nc1N1CCCCC1 | 16.7% |
| CC(C)(C)C(=O)OC/C(N)=N/OC(=O)c1ccc(Cl)c(Cl)c1 | 7.27% |
| Cc1c(C(=O)N2CC(C)OC(C)C2)oc2ccccc12 (centres unmarked) | -7.52% |
| Cl.O=S(=O)(NCC(c1ccco1)N1CCCCC1)c1ccccc1C(F)(F)F (centres unmarked) | 11.3% |
| COC(C/C=C\[C@H](O)[C@@H](C)OCc1ccccc1)OC | 4.68% |
| CCC1(c2ccc(N)cc2)CCC(=O)NC1=O (centres unmarked) | 12% |
